Test results published in paper PMC4769169 (eLife, 2016).
Changes are numbered by the printed parent chain. Results are given in words; binding and its absence hold for the method and conditions named. Binding seen in cells or lysates may run through a third protein. Some results given as binding are weak or reduced against the parent protein; the word gives no strength. For part of these data: Tags and fused reporters may be left off the sequences shown.

Sequences of proteins named here, by UniProt entry; tags and fusion partners are left off. A change or cut given only in a name is not applied to a line headed by its entry.
UniProt P61026: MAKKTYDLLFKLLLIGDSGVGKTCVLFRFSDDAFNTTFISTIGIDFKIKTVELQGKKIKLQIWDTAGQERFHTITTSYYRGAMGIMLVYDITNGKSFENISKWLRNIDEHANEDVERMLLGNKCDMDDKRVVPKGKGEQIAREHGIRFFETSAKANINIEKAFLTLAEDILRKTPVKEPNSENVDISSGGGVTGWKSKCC
UniProt P61006: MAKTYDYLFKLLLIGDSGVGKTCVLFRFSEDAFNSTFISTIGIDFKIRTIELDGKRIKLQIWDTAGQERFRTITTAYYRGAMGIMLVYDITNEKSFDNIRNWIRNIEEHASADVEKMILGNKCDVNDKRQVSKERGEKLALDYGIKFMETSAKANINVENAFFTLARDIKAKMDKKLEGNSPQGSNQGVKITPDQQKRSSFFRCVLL

T1: HA-Rab12 S106E (human) (UniProt Q6IQ22)
T1 sequence: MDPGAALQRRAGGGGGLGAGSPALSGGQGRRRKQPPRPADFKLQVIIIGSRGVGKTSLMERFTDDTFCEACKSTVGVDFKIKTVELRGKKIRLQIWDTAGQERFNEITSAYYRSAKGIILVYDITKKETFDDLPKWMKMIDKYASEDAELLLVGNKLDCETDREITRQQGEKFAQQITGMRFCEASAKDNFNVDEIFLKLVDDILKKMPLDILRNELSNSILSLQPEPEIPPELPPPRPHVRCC

T2: HA-Rab12 (wild type) (human) (UniProt Q6IQ22)
T2 sequence: T1 sequence with E106S

T3: HA-Rab12 S106A (human) (UniProt Q6IQ22)
T3 sequence: T1 sequence with E106A

B1: Rab GDP dissociation inhibitor α (GDI1) (protein, UniProt P31150 1-447)
chain: MDEEYDVIVLGTGLTECILSGIMSVNGKKVLHMDRNPYYGGESSSITPLEELYKRFQLLEGPPESMGRGRDWNVDLIPKFLMANGQLVKMLLYTEVTRYLDFKVVEGSFVYKGGKIYKVPSTETEALASNLMGMFEKRRFRKFLVFVANFDENDPKTFEGVDPQTTSMRDVYRKFDLGQDVIDFTGHALALYRTDDYLDQPCLETVNRIKLYSESLARYGKSPYLYPLYGLGELPQGFARLSAIYGGTYMLNKPVDDIIMENGKVVGVKSEGEVARCKQLICDPSYIPDRVRKAGQVIRIICILSHPIKNTNDANSCQIIIPQNQVNRKSDIYVCMISYAHNVAAQGKYIAIASTTVETTDPEKEVEPALELLEPIDQKFVAISDLYEPIDDGCESQVFCSCSYDATTHFETTCNDIKDIYKRMAGTAFDFENMKRKQNDVFGEAEQ
B2: Rab GDP dissociation inhibitor β (GDI2) (protein, UniProt P50395 1-445)
chain: MNEEYDVIVLGTGLTECILSGIMSVNGKKVLHMDRNPYYGGESASITPLEDLYKRFKIPGSPPESMGRGRDWNVDLIPKFLMANGQLVKMLLYTEVTRYLDFKVTEGSFVYKGGKIYKVPSTEAEALASSLMGLFEKRRFRKFLVYVANFDEKDPRTFEGIDPKKTTMRDVYKKFDLGQDVIDFTGHALALYRTDDYLDQPCYETINRIKLYSESLARYGKSPYLYPLYGLGELPQGFARLSAIYGGTYMLNKPIEEIIVQNGKVIGVKSEGEIARCKQLICDPSYVKDRVEKVGQVIRVICILSHPIKNTNDANSCQIIIPQNQVNRKSDIYVCMISFAHNVAAQGKYIAIVSTTVETKEPEKEIRPALELLEPIEQKFVSISDLLVPKDLGTESQIFISRTYDATTHFETTCDDIKNIYKRMTGSEFDFEEMKRKKNDIYGED

Key:
Test in all cases: co-IP; HA-Rab constructs expressed in HEK293; lysates incubated with HA-agarose for 1 hr, washed with PBS; western blotting (anti-GDI1/2); in Figure 6C-F different LRRK2 versions were co-expressed
HA-Rab12 S106E (human) = target: T1, HA-Rab12 S106E (human)
HA-Rab10 T73E = HA-Rab10 T73E (UniProt P61026)
HA-Rab8a (wild type) = HA-Rab8a (wild type) (UniProt P61006)
[1] = target: T2, HA-Rab12 (wild type) (human)
HA-Rab12 S106A (human) = target: T3, HA-Rab12 S106A (human)
HA-Rab10 T73A = HA-Rab10 T73A (UniProt P61026)

Binder	binding (HA-Rab12 S106E (human))	binding (HA-Rab10 T73E)	binding (HA-Rab8a (wild type))	binding [1]	binding (HA-Rab12 S106A (human))	binding (HA-Rab10 T73A)
B1	no binding	no binding	binds	binds	binds	binds
B2	no binding	no binding	binds	binds	binds	binds
